Among all 360,000 compounds or so, about 230 (0.064%) were called active. This list was built around the results that the source calls inconclusive (neither active nor inactive); the mix of calls is not that of the screen. Cut-off read from the data, not from the text of the source: active = activity above about 50% (passing the limit was not always enough); inconclusive = no clear call, values can overlap the other calls.
These compounds were tested on DNA topoisomerase I (Yersinia pestis CO92) (assay: Yersinia pestis topoisomerase I inhibitors, primary screen, biochemical, cleavage product accumulation, plate reader, single point (AID 504884)). Conditions: Y. pestis Topo-I cleavage product accumulation, at 10 µM, active compounds read high.
`CC1CCN(c2oc(Cc3cccc4ccccc34)nc2C#N)CC1` was tested, and the activity was active: 54.8%. With `Cc1cccc(CSCCNC(=O)COc2ccc(Cl)cc2)c1` the activity was inconclusive: 53.5%. In the case of `CC(=O)N/N=C(\C)CC(=O)NC(C)(C)C`, the activity is reported as inconclusive: 84.2%. `Cc1cnc([N+](=O)[O-])n1CCOC(=O)NC(=O)c1ccc(F)cc1` was tested, and the activity was inactive: 6.94%. For `Clc1ccc(CSc2nnc(-c3ccccn3)n2Cc2cccs2)cc1Cl`, the activity was inconclusive: 54%. With `CCC1CCCCN1C(=O)COc1ccc(N(C)S(=O)(=O)c2ccc(C)cc2)cc1` (stereo not drawn) the activity was inconclusive: 57.4%. In the case of `CC(=O)c1ccc(NC(=O)CO/N=C(\C)c2cccs2)cc1`, the activity is reported as inactive: 5.66%. `O=S(=O)(NCc1ccccc1)c1ccccc1NCCc1ccccc1` was tested, and the activity was inconclusive: 51.1%. In the case of `CCN(CC)CCN(C(=O)c1ccc(S(=O)(=O)N(C)C2CCCCC2)cc1)c1nc2ccc(OC)cc2s1`, the activity is reported as inconclusive: 50.2%. In the case of `c1ccc2cc(CCCc3cc4ccccc4cn3)ncc2c1`, the activity is reported as active: 54.9%. For `COc1ccccc1CC(=O)N(Cc1ccccc1)c1ccc(C)cc1`, the activity was inconclusive: 71.8%. In the case of `Cc1ccc(C(C)(C)C)c(OCCCn2ccnc2)c1`, the activity is reported as inconclusive: 50.7%. With `Cc1ccc(CN(C)C(=O)c2cc(COc3cccc(C(F)(F)F)c3)on2)o1` the activity was inconclusive: 50.7%. With `CN(C)CCCNc1nc(N)c([N+](=O)[O-])c(NCCO)n1` the activity was inactive: -1.34%. In the case of `Cc1ccc(CN2CC(C(=O)Nc3ccc(S(=O)(=O)N4CCCCC4)cc3)CC2=O)cc1` (stereo not drawn), the activity is reported as inconclusive: 59.3%. For `O=C(OCC(=O)N(C1CCCCC1)C1CCCCC1)c1ccccc1O`, the activity was inconclusive: 53.8%. For `CCOc1ccc(C(=O)N/N=C(\c2ccccc2)c2ccccn2)cc1`, the activity was inactive: 24.1%. For `CC(C)COc1cccc(C(=O)NC(=S)NCc2cccnc2)c1`, the activity was inconclusive: 51.2%. With `Cc1cc(NC(=O)C(C)SCC(=O)N(Cc2ccccc2)c2ccccc2)no1` (stereo not drawn) the activity was inconclusive: 87.2%. With `COc1ccc2cc(C(=O)C3CCCN(C(=O)Cc4c(C)noc4C)C3)ccc2c1` (stereo not drawn) the activity was inactive: 20%. For `COC(=O)c1c(NC(=O)CC2SC(N)=NC2=O)sc2c1CCC(C)C2` (stereo not drawn), the activity was inconclusive: 66.4%. For `Cc1cccc(-n2c(C)cc(/C=N/NC(=O)c3ccc(CN4CCOCC4)cc3)c2C)c1`, the activity was inactive: 1.84%. With `Cc1oc2cc3oc(=O)c(CCC(=O)NCCCN4CCOCC4)c(C)c3cc2c1C` the activity was inactive: 7.06%. For `CCOC(=O)c1cc(-c2ccc(OC(F)F)cc2)nc2nc(SC)[nH]c(=O)c12`, the activity was inactive: 0.505%. `CC(C)CNC(=O)C1(C)CCCCCN1Cc1ccccc1-c1ccccc1` (stereo not drawn) was tested, and the activity was inconclusive: 52.7%. With `Cc1cc(N2C(=O)C(O)=C(C(=O)c3ccc(C)o3)C2c2cccc(Oc3ccccc3)c2)no1` (stereo not drawn) the activity was inconclusive: 55.2%. With `Cc1sc(N2CCN(S(=O)(=O)c3ccc4c(c3)NC(=O)CO4)CC2)nc1-c1ccccc1` the activity was inconclusive: 57%. With `O=C(CCCCCCCC(=O)c1ccccc1)c1ccccc1` the activity was inconclusive: 51.9%. With `Cc1cc(C)cc(N2C(=O)NC(=O)/C(=C\c3cccn3-c3ccccc3)C2=O)c1` the activity was active: 53.2%. `CCOC(=O)CSc1nc(Cc2ccccc2)nc2ccccc12` was tested, and the activity was inconclusive: 51%. `Cc1ccc(C(=O)c2c3ccccc3[n+]([O-])n2CCC(N)=O)cc1` was tested, and the activity was inactive: 3.91%. `Nc1c(-c2ccccc2)c(CSc2nc3ccccc3[nH]2)nn1-c1cccc(Cl)c1` was tested, and the activity was inactive: -0.406%. In the case of `Cc1oc(-c2ccccc2F)nc1CS(=O)(=O)CC(=O)NCCCc1ccccc1`, the activity is reported as inactive: 35.2%. For `CC(C)(C)c1ccc(OCCn2nc(C(=O)O)c3ccccc3c2=O)cc1`, the activity was active: 71.6%. With `CC1(C)CC(=O)C=C(c2ccc(Oc3ccccc3)cc2)C1=O` the activity was inconclusive: 50.8%. `O=C(N/N=C/c1cccs1)c1c[nH]c2ccccc12` was tested, and the activity was inactive: -8.77%. In the case of `COC(=O)C1=C(c2ccc(-c3ccccc3)c(F)c2)C[C@@H]2CC[C@H]1N2C(=O)NCCOc1ccccc1Cl`, the activity is reported as inconclusive: 50.8%. In the case of `COc1cc(/C=C(\C#N)C(=O)NC2CCCCC2C)ccc1OS(=O)(=O)c1ccc(C)cc1` (stereo not drawn), the activity is reported as inactive: 17.1%. In the case of `CC(C)N(Cc1ccccc1)C(=O)CN1C(=O)NC2(CCCCCC2)C1=O`, the activity is reported as inactive: 5.36%. `CCN1C(=O)[C@H]2[C@@H](c3ccc(OC)cc3)N[C@]3(CCCN(Cc4ccccc4)C3=O)[C@H]2C1=O` was tested, and the activity was inactive: -1.06%. In the case of `Cc1ccc(-c2cc([C@H]3[C@@H]4C=CCC[C@@]4(C)C(=O)N3Cc3ccccc3)ccc2F)cc1`, the activity is reported as inconclusive: 104%. `Cc1ccc(NC(=O)C(NC2CCCc3ccccc32)c2ccccc2)c([N+](=O)[O-])c1` (stereo not drawn) was tested, and the activity was inactive: 2.76%. With `CCOC(=O)C(C)Sc1nc2c(c(=O)[nH]c(=O)n2C)n1Cc1ccc(Cl)cc1` (stereo not drawn) the activity was inconclusive: 60.5%.

Reference: PubChem BioAssay AID504884 (Broad Institute, 2011)
